Experimental data reported in PubChem BioAssay AID504832 (National Center for Advancing Translational Sciences (NCATS), 2011).
Among all 310,000 compounds or so, about 18,000 (5.8%) were called active. This list was built around the results that the source calls inconclusive (neither active nor inactive); the mix of calls is not that of the screen. The call rests on the fitted dose curve; in most records, active means well fitted inhibition curve with a large enough effect; inconclusive means small, poorly fitted or top-dose-only effect, or another doubt; inactive means no such curve, though single readings can be large or run the other way. No potency is given beside an inconclusive call; the fits are too rough.

Assay: Primary qHTS for delayed death inhibitors of the malarial parasite plastid, 48 hour incubation
Conditions: P. falciparum luciferase growth in erythrocytes; series mostly up to 28.7 µM
How it was run: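 Here the parasites carry a stable luciferase gene and grow inside erythrocytes in Albumax-based RPMI medium with compound for one erythrocytic cycle. Activity is scored as loss of luminescent signal.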
Potency means the concentration at half of the fitted maximal effect; tags describe the fitted curve by direction and shape.

Structure (SMILES)	Potency
O=C(C[n+]1cc(-c2ccccc2)n2c1CCC2)OCc1ccccc1	inactive
FC(F)(F)c1ccnc(NCc2ccco2)n1	inactive
COCCNC(=O)CN(Cc1ccc(F)cc1)C(=O)CCC(=O)Nc1nccs1	inactive
Cc1ccc(/C=C/C(=O)O)cc1S(=O)(=O)N1CCCCC1	inactive
Cc1c(C)c2c(OCC(=O)N3CCC(C(=O)O)CC3)cc3c(c2oc1=O)CCC(C)(C)O3	inconclusive [inhibitor, full curve]
COc1cc(-c2nnc(SCC(=O)N(Cc3ccccc3)C(C)(C)C)o2)cc(OC)c1OC	active: 10.4 µM
Cc1ccc(OCC(=O)c2c[nH]c3ccccc23)c([N+](=O)[O-])n1	inconclusive [inhibitor, single point]
CNC(=S)N1CCN(c2nc(-c3ccc(Cl)cc3)cs2)CC1	inconclusive [inhibitor, single point]
O=C(C/C=N/OCc1c(Cl)cccc1Cl)c1ccccc1	inconclusive [inhibitor, single point]
COc1ccc(Nc2nc(C)nc3c2nnn3Cc2ccccc2)cc1OC	inconclusive [inhibitor, partial curve]
Cc1noc(C)c1COC(=O)C1CCN(S(=O)(=O)c2ccc(F)cc2)CC1	inconclusive [inhibitor, single point]
CCOc1ccc(CN(C)C(=O)CNC(=O)c2ccc3ccccc3c2)cc1OC	inactive
Clc1ccc(OCCCc2nc(-c3ccncc3)no2)c(Cl)c1	inactive
CCN(CC(=O)Nc1ccccc1C(F)(F)F)C(=O)C1=COCCO1	inconclusive [inhibitor, partial curve, poor fit]
Cc1cc(C)n(-c2nnc(NC34CC5CC(CC(C5)C3)C4)nn2)n1	active: 3.29 µM
CCn1c(=O)c(C(=O)NCc2ccc(F)cc2)c(O)c2ccccc21	inactive
CCC(=O)c1c(NCCc2ccccc2)cc(C)oc1=O	inactive
CCOC(=O)c1cc(-c2ccc(OC)cc2)nc2c1c(C)nn2CCC#N	active: 5.22 µM
C/C(=N\NC(=O)c1nn(C)cc1Br)c1cccc(NC(=O)C(C)(C)C)c1	inconclusive [inhibitor, single point]
COC(=O)c1cc(C(=O)OC)cc(-n2c(C)cc(C(=O)COC(=O)CNS(=O)(=O)c3ccc(C)cc3)c2C)c1	inactive
Cn1c(=O)oc2cc(S(=O)(=O)NCCC(=O)NCCc3ccc(Cl)cc3)ccc21	inconclusive [inhibitor, partial curve]
O=C(Nc1cccc(NC(=O)c2nccc3ccccc23)c1)c1ccco1	inactive
CC(O)CNC12CC3CC(CC(C3)C1)C2 (stereo not drawn)	inconclusive [inhibitor, partial curve, poor fit]
OC1CN=C2CCCc3c2n(c2ccc(Cl)cc32)C1 (stereo not drawn)	inconclusive [inhibitor, single point]
O=C(Nc1ccc(OC(F)(F)F)cc1)c1cccc(-n2cnnn2)c1	inconclusive [inhibitor, single point]

Structure (SMILES)	Potency
Cc1ccccc1-c1cn(-c2ccccc2)c(=S)[nH]1	inconclusive [inhibitor, single point]
CCCCOc1ccc(C(=O)Nc2ccc(N3CCN(C)CC3)cc2)cc1	inconclusive [inhibitor, partial curve]
Cn1c(-c2ccc(=O)[nH]c2)nc2ccccc21	inconclusive [inhibitor, partial curve, poor fit]
COc1ccc(/C=N/Nc2nc3ccccc3s2)cc1O	inactive
O=C(Cn1c2ccccc2c(=O)c2ccccc21)N/N=C/c1ccc(N2CCCC2)c([N+](=O)[O-])c1	inactive
COc1ccccc1C/C(N)=N/OC(=O)COc1ccc2ccccc2c1	inactive
N#Cc1ccc(-c2ccc(F)cc2)nc1SCC(=O)Nc1sc2c(c1C#N)CCC2	inconclusive [inhibitor, partial curve]
C[C@@H]1CN(C(=O)c2ccc(OC3CCN(S(=O)(=O)N(C)C)CC3)cc2)C[C@H](C)O1	inactive
Cc1ccc(-c2cc(C#N)c(=O)n(Cc3c(Cl)cccc3Cl)c2)cc1	inconclusive [inhibitor, single point]
Cc1noc(C)c1COc1ccc(C(=O)Nc2ccccn2)cc1	inactive
COc1ccc(NC(=O)c2ccc(CNc3c(N4CCCC4)c(=O)c3=O)cc2)cc1Cl	inconclusive [inhibitor, partial curve, poor fit]
c1ccc(CNc2c3c(nc4ncnn24)CCCC3)nc1	inactive
COC(=O)C(Cc1ccccc1)NC(=O)CCc1c[nH]c2ccccc12 (stereo not drawn)	inactive
CSc1ncc(/C=C2/C(=O)NC(=O)N(C)C2=O)cn1	inactive
O=C(Nc1ccccc1N1CCCCC1)c1ncoc1-c1ccc(F)cc1	active: 3.29 µM
Cn1c(=S)c2[nH]c(SCCN3CCCC3)nc2n(C)c1=O	active: 11.7 µM
CCOc1ccc(CCNC(=O)c2cccc3c2C(=O)N(CCOC)C3)cc1OCC	inconclusive [inhibitor, partial curve, poor fit]
CSc1ccc(NC(=O)N2CCC(C(=O)c3ccc(F)cc3)CC2)cc1	inactive
CC1=C(C(=O)Nc2ccccc2Cl)C(c2ccc(N(C)C)cc2)NC(=O)N1 (stereo not drawn)	inconclusive [inhibitor, single point]
CN1c2ccccc2C(O)=C(C(=S)Nc2ccc(Cl)cc2)S1(=O)=O	inconclusive [inhibitor, partial curve, poor fit]
O=C(CSCCN1C(=O)c2ccccc2C1=O)Nc1ccc2ccccc2c1	inconclusive [inhibitor, full curve]
O=C(c1ccc(Br)c([N+](=O)[O-])c1)N1CCN(Cc2ccccc2)CC1	inactive
COc1ccc(S(=O)(=O)N2CCc3ccccc32)cc1C(=O)OCC(=O)c1c(N)n(C)c(=O)n(C)c1=O	active: 4.15 µM
Cc1ccc(Cl)cc1NS(=O)(=O)c1cc2[nH]c(=O)c(=O)[nH]c2cc1C	inconclusive [inhibitor, single point]
CC(C)(C)NC(=O)Cn1nnc(-c2ccc(OCc3c(F)cccc3Cl)cc2)n1	inconclusive [inhibitor, full curve]

Structure (SMILES)	Potency
CCOC(=O)C1CCN(C(=O)CSCc2nc(-c3ccc(OCC)cc3)oc2C)CC1	inconclusive [inhibitor, single point]
Cc1nc2sc(-c3ccccc3)cc2c(=O)n1-n1cccc1	inactive
Cc1ccc(SCC(=O)Nc2cccc(NC(=O)c3ccco3)c2)cc1	inconclusive [inhibitor, partial curve, poor fit]
CC(=O)Nc1ccc(S(=O)(=O)Nc2cccn(Cc3ccc(C)cc3)c2=O)cc1	inactive
CCOC(=O)N1CCC(NC(=O)c2ccc3snnc3c2)CC1	inactive
CCCCN(CCCC)CC(O)COc1ccc(Br)cc1 (stereo not drawn)	active: 3.7 µM
CCn1c(N2CCN(S(=O)(=O)c3ccc(Cl)cc3)CC2)nc2ccccc21	inconclusive [inhibitor, single point]
NC(=O)CCCn1c(C(=O)c2cc(Cl)c(N)c(Cl)c2)c2ccc([N+](=O)[O-])cc2[n+]1[O-]	inconclusive [inhibitor, single point]
CCOC(=O)[C@H]1[C@H]2COc3ccc(Br)cc3[C@@H]2N2C(=O)c3cc(F)c(F)cc3NC(=O)[C@@]12C	active: 16.5 µM
Cc1ccc(S(=O)(=O)/N=C(\c2ccc(F)cc2)n2c(C)nc3ccccc32)cc1	inconclusive [inhibitor, full curve, poor fit]
Cc1ccc(Nc2nc3ccc(Cl)cc3n3cnnc23)cc1F	active: 10.4 µM
Cc1occc1-c1nnc(SCC(=O)NCc2cccs2)n1CC1CCCO1 (stereo not drawn)	inconclusive [inhibitor, partial curve, poor fit]
Cc1ccc(C2c3[nH]c4ccccc4c3C[C@H]3C(=O)N(c4ccccc4C(=O)N4CCC[C@@H]4C(=O)O)C(=O)N23)cc1 (stereo partly drawn)	inconclusive [inhibitor, partial curve]
Cc1ccc(C(=O)N/C(=C\c2cn(C)c3ccccc23)C(=O)NCCCn2ccnc2)cc1	inconclusive [inhibitor, single point]
O=C1CC(N2CCc3ccccc32)C(=O)N1c1ccc(F)cc1 (stereo not drawn)	inactive
CCOc1ccc(S(=O)(=O)Nc2ccc(C(=O)N3CC(C)OC(C)C3)cc2)cc1 (stereo not drawn)	inconclusive [inhibitor, partial curve, poor fit]
COc1ccc2oc(=O)c(C(=O)NC(C)c3ccccc3)cc2c1 (stereo not drawn)	inconclusive [inhibitor, full curve, poor fit]
COC(=O)c1ccc(CO/N=C/c2ccc(OC)cc2OC)cc1	inactive
Cc1cc(=S)cc(C)n1CCO	inactive
CC1CCC(NC(=O)C2(C)CCC(=O)N2Cc2cccnc2)CC1 (stereo not drawn)	inactive
O=C(c1ccccc1)N1CCN(c2ncnc3c2cnn3-c2ccccc2)CC1	inconclusive [inhibitor, partial curve]
CCN(C(=O)CCN1C(=O)S/C(=C\c2ccccc2)C1=O)C1CCS(=O)(=O)C1 (stereo not drawn)	inactive
COc1ccc(NC(=O)CCCC(=O)NCCc2ccc(OC)c(OC)c2)cc1	inconclusive [inhibitor, partial curve, poor fit]
